According to publication PMC6570896:
No constants are given. Whether binding was seen depends on the method and setting. Binding seen in cells or lysates may run through a third protein. Some results given as binding are weak or reduced against the parent protein; the word gives no strength.

Sequences of proteins named here, by UniProt entry; tags and fusion partners are left off.
UniProt Q9M7Q7: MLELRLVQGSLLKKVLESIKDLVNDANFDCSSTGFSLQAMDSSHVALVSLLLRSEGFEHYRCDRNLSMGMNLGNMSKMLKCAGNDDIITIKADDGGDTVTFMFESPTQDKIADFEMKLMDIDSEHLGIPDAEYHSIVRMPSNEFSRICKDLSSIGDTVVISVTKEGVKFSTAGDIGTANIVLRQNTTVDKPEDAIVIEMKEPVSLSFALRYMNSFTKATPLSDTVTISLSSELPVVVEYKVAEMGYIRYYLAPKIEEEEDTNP
UniProt P17070: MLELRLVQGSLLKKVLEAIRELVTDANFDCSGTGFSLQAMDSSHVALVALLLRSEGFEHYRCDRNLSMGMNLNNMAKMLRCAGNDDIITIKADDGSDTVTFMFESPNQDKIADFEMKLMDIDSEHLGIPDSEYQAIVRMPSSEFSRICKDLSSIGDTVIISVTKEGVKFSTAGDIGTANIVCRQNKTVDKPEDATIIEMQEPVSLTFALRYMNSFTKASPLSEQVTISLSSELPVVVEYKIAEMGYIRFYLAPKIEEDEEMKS

Assays:
Experiment in all cases: split reporter; BiFC: fusions to YFP^N (1-155 aa) and YFP^C (156-239 aa) co-expressed transiently in Nicotiana benthamiana leaf epidermal cells; YFP seen by confocal microscopy
[1] = target: AtPCNA1-YFP^C (Arabidopsis thaliana) (UniProt Q9M7Q7)
[2] = target: OsPCNA-YFP^C (rice (Oryza sativa)) (UniProt P17070)
[3] = target: T1, OsRFC1 with 300 aa deleted in its C-terminal (rice (Oryza sativa)) (UniProt Q2R2B4)
T1 sequence: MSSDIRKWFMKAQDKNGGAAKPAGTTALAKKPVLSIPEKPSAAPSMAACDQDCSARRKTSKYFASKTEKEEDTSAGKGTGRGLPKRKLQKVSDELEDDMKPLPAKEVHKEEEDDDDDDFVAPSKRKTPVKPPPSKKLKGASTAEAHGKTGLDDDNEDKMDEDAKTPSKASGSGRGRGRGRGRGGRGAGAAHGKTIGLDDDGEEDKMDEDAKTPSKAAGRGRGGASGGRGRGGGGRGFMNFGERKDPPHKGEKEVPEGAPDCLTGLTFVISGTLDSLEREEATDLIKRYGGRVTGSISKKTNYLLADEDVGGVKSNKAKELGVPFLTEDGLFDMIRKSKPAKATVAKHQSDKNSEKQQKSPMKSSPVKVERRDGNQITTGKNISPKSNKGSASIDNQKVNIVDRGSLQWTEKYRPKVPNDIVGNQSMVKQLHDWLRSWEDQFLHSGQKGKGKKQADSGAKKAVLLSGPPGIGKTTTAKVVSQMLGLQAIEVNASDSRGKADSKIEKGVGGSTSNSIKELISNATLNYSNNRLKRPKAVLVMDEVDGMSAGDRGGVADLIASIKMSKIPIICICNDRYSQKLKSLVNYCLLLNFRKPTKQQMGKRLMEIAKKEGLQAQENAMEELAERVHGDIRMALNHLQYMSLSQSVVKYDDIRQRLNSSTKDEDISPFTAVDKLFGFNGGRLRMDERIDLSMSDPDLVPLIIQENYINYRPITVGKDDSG

[4] = target: T2, OsRFC1 Δ1–642 (rice (Oryza sativa)) (UniProt Q2R2B4)
T2 sequence: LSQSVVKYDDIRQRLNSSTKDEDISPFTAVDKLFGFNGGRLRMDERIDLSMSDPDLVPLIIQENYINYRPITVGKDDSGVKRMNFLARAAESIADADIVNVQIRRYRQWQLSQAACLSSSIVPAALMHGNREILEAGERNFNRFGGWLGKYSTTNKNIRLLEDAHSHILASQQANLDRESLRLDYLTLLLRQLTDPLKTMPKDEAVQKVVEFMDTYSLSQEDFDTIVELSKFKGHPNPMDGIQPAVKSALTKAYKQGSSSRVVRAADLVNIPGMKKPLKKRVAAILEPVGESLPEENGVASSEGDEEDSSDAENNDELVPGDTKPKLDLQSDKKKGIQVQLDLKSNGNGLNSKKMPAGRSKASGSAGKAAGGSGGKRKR

[5] = target: T3, OsRFC2 Δ1–221 (rice (Oryza sativa)) (UniProt Q9FXM3)
T3 sequence: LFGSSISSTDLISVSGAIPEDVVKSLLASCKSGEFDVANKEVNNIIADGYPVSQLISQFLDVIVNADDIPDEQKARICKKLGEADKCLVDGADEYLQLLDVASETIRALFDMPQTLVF

[6] = target: T4, OsRFC3 Δ242–361 (rice (Oryza sativa)) (UniProt Q6YZ54)
T4 sequence: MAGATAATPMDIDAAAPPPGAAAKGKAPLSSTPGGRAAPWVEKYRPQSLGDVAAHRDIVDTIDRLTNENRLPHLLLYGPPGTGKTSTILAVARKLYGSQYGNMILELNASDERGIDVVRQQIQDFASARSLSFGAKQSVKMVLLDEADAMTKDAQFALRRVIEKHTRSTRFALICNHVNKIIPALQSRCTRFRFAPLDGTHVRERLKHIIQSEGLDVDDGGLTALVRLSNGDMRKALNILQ

[7] = target: T5, OsRFC4 Δ216–335 (rice (Oryza sativa)) (UniProt Q7XRX1)
T5 sequence: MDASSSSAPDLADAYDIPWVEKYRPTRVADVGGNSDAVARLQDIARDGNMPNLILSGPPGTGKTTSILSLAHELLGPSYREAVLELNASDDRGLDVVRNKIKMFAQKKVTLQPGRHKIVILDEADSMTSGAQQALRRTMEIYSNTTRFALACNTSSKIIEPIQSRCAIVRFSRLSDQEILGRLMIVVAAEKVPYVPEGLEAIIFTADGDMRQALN

[8] = target: T6, OsRFC4 Δ36–335 (rice (Oryza sativa)) (UniProt Q7XRX1)
T6 sequence: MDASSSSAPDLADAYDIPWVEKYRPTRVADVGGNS

[9] = target: T7, OsRFC5 with 237 aa of N-terminal removed (rice (Oryza sativa)) (UniProt Q852K3)
T7 sequence: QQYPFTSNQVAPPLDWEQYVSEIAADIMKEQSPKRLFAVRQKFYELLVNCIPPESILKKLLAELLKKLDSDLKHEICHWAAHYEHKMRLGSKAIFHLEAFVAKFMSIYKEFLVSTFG

Measured: binding

AtPCNA1-YFP^C (from UniProt Q9M7Q7 1-263)
binds: [1]

OsPCNA-YFP^C (from UniProt P17070 1-263)
binds: [2] | [3] | [4] | [5] | [6] | [7] | [8] | [9]
